The source of these data is PubChem BioAssay AID1159614 (National Center for Advancing Translational Sciences (NCATS), 2016).

Out of some 45,000 compounds screened, about 65 (0.1%) were called active. Calls come from the whole dose curve; as a rule, active = well fitted activation curve with a large enough effect; inconclusive = small, poorly fitted or top-dose-only effect; inactive = no such curve, though single readings can be large or run the other way. The list shows a part of the results.

Sequence of UniProt P54803 (P54803 whole entry, looked up): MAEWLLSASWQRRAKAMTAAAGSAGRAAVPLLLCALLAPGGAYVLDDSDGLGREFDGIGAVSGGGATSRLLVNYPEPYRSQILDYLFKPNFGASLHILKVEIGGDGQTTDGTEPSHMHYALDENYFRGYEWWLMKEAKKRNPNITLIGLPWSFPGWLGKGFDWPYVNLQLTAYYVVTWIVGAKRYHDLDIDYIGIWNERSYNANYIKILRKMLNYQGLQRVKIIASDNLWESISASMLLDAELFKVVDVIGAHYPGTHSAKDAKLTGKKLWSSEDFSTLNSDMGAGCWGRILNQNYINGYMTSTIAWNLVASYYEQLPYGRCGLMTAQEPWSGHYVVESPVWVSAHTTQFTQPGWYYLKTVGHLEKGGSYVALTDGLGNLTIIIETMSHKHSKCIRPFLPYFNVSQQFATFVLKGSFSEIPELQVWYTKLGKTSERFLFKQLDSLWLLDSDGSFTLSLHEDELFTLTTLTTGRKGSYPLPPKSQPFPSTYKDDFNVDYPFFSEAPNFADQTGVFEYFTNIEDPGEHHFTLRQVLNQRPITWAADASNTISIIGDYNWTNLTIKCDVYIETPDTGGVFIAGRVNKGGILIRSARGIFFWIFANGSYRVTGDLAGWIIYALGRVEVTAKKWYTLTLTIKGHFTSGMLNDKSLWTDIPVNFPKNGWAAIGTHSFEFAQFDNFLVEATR

For this experiment, the target named is Galactocerebrosidase (Homo sapiens) (UniProt P54803). Briefly: A Novel Cell-Based Assay to Identify Small Molecules for B -Galactocerebrosidase. Note: 0% is about no effect; nearly all actives have a fitted effect of over 65% in size. The conditions noted are these: 145M-Twi-hGALC-G270D cells (Twitcher mouse brain line with human GALC G270D), HMU-beta-Gal fluorescence, 48 h; series mostly up to 57.5 µM; activation: at the top concentration. The procedure, abridged:
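Fluorescence readout: HMU-β-gal cleavage by mutant GALC (0.1 mM final, citrate/phosphate pH 5.2 with 1 mg/mL taurocholate), stopped with carbonate/bicarbonate plus Triton X-100. Cells: murine Twitcher 145M-Twi expressing human G270D GALC; qHTS for activators.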
Consider `O=c1c2cnn(-c3ccc(F)cc3)c2ncn1Cc1ccc(F)cc1`, for which the “activation” value was inactive: -6.04%.
Turning to `Cc1cccc(NC(=O)Cc2ccc(-n3c(C)nc4cccnc43)cc2)c1C`, the “activation” value was inactive: -3.61%.
Turning to `COc1ccc(Cl)cc1NC(=O)Cn1cc2c(n1)CCC(C)C2` (stereo unspecified), the “activation” value is inactive: -11.9%.
For the molecule `Cc1ccc(-c2nc(C)c(CCNC(=O)C(=O)Nc3ccc4c(c3)OCO4)s2)cc1`, the “activation” value is inactive: -17.9%.
Consider `COc1ccc(CCN2C(=O)N(c3ccccc3)C(=O)C2CC(=O)Nc2ccccc2)cc1` (stereo unspecified), for which the “activation” value is inactive: -9.81%.
In the case of `CC(=O)c1cccc(NC(=O)c2cc3nc(-c4ccc(Br)cc4)cc(C(F)(F)F)n3n2)c1` it was inactive: -2.91%; in that of `COc1ccc(CNC(=O)c2ccc(-c3nc(CSc4ccccc4)c(C)o3)cc2)c(OC)c1`, inactive: -11.5%; in that of `CCc1ccc(NC(=O)c2cc3c([nH]c2=O)CC(C)(C)CC3=O)cc1`, inactive: -8.54%.
For the molecule `N#Cc1c[nH]n2c(NC3CCCCC3)c(-c3cccc(Cl)c3)nc12`, the “activation” value is inactive: -1.2%.
In the case of `CCOc1ccc2oc(=O)cc(CN3CCN(c4ccccc4)CC3)c2c1` it was inactive: 1.18%.
Turning to `COc1cc(C(=O)N2CC(=O)Nc3ccc(C)cc3C2c2ccc(F)cc2)cc(OC)c1OC` (stereo unspecified), the “activation” value was inactive: 1.96%.
In the case of `Cc1nc(N2CCOCC2)c2c(C(=O)N3CCN(c4cccc(C)c4C)CC3)c(C)oc2n1` it was inactive: -3.48%; in that of `CCCN1C(=O)C2(c3ccccc31)c1c(oc3ccc(C)cc3c1=O)C(=O)N2CCOC` (stereo unspecified), inactive: -13.5%; in that of `CCOC(=O)C1CCN(CCC(=O)Nc2ccc(OC)cc2)CC1`, inactive: -10.9%.
Then `COc1ccc(Nc2cc(C)c3cc(NC(=O)c4cc(OC)cc(OC)c4)ccc3n2)cc1`, with inactive: -8.5%; and `Cc1ccc(C)c(NC(=O)NCc2ccc3c(c2)CCN3C(=O)c2ccccc2)c1`, with inactive: -20.2%; and `Cc1cc(C)c(NC(=O)CCC(=O)N2Cc3ccccc3Oc3ncccc32)c(C)c1`, with inactive: -11.8%.
For `COC(=O)c1ccccc1NC(=O)Cn1c(=O)n(CCCC(=O)NCCc2ccc(OC)c(OC)c2)c(=O)c2ccccc21`, the “activation” value is inactive: -7.39%.
Then `CCCOc1ccc(C2c3c(oc4ccccc4c3=O)C(=O)N2c2nc(C)c(C(=O)OCC)s2)cc1` (stereo unspecified), with inactive: -13.4%; and `COc1ccc(S(=O)(=O)NCc2ccc(C(=O)NCc3ccccc3)cc2)cc1`, with inactive: -15.9%.
Then `CC(C)c1ccc(NC(=O)C2(C)Cc3ccccc3C(=O)O2)cc1` (stereo unspecified), with inactive: -9.17%.
Take `CC(=O)c1ccc(N2CCN(C(=O)c3ccc(Cn4c(=O)[nH]c5ccccc5c4=O)cc3)CC2)cc1`: the “activation” value was inactive: -4.22%.
For `CCN1CCC(N(Cc2ccc(F)cc2)C(=O)Nc2cc(Cl)ccc2C(=O)OC)CC1`, the “activation” value was inactive: -8.88%.
Then `CC(C)C(NS(=O)(=O)c1cccc2cccnc12)C(=O)Nc1ccc(OC(F)(F)F)cc1` (stereo unspecified), with inactive: -18.9%; and `Cc1ccc2c(c1)-c1c(cnn1CC(=O)N1CCN(c3cc(Cl)ccc3C)CC1)CO2`, with inactive: -5.11%; and `COc1ccc(-c2cc(C(F)(F)F)c(C#N)c(SCC(=O)Nc3ccccc3F)n2)cc1`, with inactive: -9.08%.
On to `CCC(C)Sc1c(C(C)C)cnc2c1c(=O)n(C)c(=O)n2C` (stereo unspecified), for which the “activation” value was inactive: -1.91%.
In the case of `COc1cccc(CN2C(=O)CN(C3CCCCC3)C(=O)C2c2ccc(OC)c(OC)c2)c1` (stereo unspecified) it was inactive: 1.18%; in that of `CCOc1ccc(CNC(=O)C2CCN(S(=O)(=O)c3cn(C)cn3)CC2)cc1OC`, inactive: -6.73%.
For `COc1ccc(C2C=C(c3ccccc3)Nc3nc(NC(=O)/C=C/c4ccc(F)cc4)nn32)cc1` (stereo unspecified), the “activation” value is inactive: -6.45%.
In the case of `COc1ccc2c(c1)c1c(c(=O)n(-c3ccccc3C)c(=O)n1CC(=O)N1CCCC1)n2C`, the “activation” value is inactive: 28.3%.
In the case of `COc1ccccc1C(=O)Nc1ccc(OCc2cc(=O)n3ccc(C)cc3n2)cc1` it was inactive: -10.2%; in that of `COc1ccc(CNC(=O)c2cnn(-c3ccc(C)cc3)c2-n2cccc2)cc1OC`, inactive: -3.44%; in that of `COc1ccc(-n2c(/C=C/c3c(C)[nH]c4ccccc34)nc3ccccc3c2=O)cc1`, inactive: 12%.
Then `Cc1nn(C)c2c1c(-c1ccccc1)cc(=O)n2Cc1ccc(Cl)cc1`, with inactive: 8.04%; and `COc1cccc(CNc2nccn(-c3ccc(OC)c(OC)c3)c2=O)c1`, with inactive: -7.95%; and `O=C(OCc1cccc(C(F)(F)F)c1)c1ccc(-c2nnn(Cc3ccc(F)cc3)n2)cc1`, with inactive: 1.93%.
As for `CCn1c(=N)c(C(=O)NC2CCCC2)cc2c(=O)n3ccccc3nc21`, the “activation” value is inactive: -11.2%.
In the case of `CCN(C(=O)c1cn(-c2ccc(OC)cc2)c(=O)c2ccccc12)c1cccc(Cl)c1` it was inactive: 6.24%; in that of `Cc1nn(C(=O)c2ccccc2)c(C)c1S(=O)(=O)N1CCCCCC1`, inactive: 36.1%.
In the case of `COc1ccc(C)cc1-n1c(-c2ccc(C)cc2)cc2c1CC(C)(C)CC2=O`, the “activation” value is inactive: -20.3%.
Then `O=C(Cn1c2ncccc2c(=O)n1-c1ccccc1)Nc1ccc(Cl)cc1C(F)(F)F`, with inactive: -20.2%; and `COCc1cc(C)nc2sc3c(c12)NC(c1ccc(O)cc1)N(c1ccc(C)cc1)C3=O` (stereo unspecified), with inactive: -7.73%.
For `Cc1cccc(C(=O)Nc2ccc3oc(-c4ccncc4)nc3c2)c1`, the “activation” value was inactive: -23%.
In the case of `COc1ccc2c(c1)C=C(C(=O)NCc1cc(Br)ccc1OC)CO2` it was inactive: -1.33%; in that of `CCCCCn1cc2c(c1-c1ccc(Cl)cc1)c(=O)n(C)c(=O)n2C`, inactive: -23.3%.
Take `CCc1ccccc1NC(=O)c1sc(-n2nc(C)c(Cc3ccc4c(c3)OCO4)c2C)nc1C`: the “activation” value was inactive: 9.56%.
With `CCOC(=O)C1CCCN(S(=O)(=O)c2ccc3[nH]c(=O)oc3c2)C1` (stereo unspecified), the “activation” value was inactive: -14%.
In the case of `COc1ccccc1NC(=O)c1sc2ncn(Cc3ccccc3Cl)c(=O)c2c1C` it was inactive: -10.8%; in that of `CC(C)N1CCc2nc(SCC(=O)Nc3cccc(F)c3)[nH]c(=O)c2C1`, inactive: -6.3%; in that of `COc1ccc(-c2nc3scc(CCNC(=O)c4cc(OC)cc(OC)c4)n3n2)cc1`, inactive: -14.9%.
Take `CCOc1ccc(C(=O)OCc2cc(=O)n3cc(C)sc3n2)cc1`: the “activation” value is inactive: 5.28%.
Consider `Cc1ccc2[nH]c3c(=O)n(CC(=O)NC(C)C)ncc3c2c1`, for which the “activation” value is inactive: -2.81%.
For `COc1ccc(CNC(=O)CSc2ncc(S(=O)(=O)c3ccc(Br)cc3)c(=O)[nH]2)cc1`, the “activation” value was inactive: 3.02%.
In the case of `COC(=O)Nc1nc2ccc(Sc3ccccc3)cc2[nH]1` it was inactive: 1.06%.
Then `COC(=O)c1cccc(Nc2nn3c(=O)c4cc5c(cc4nc3s2)OCO5)c1`, with inactive: -1.34%; and `COc1ccc(S(=O)(=O)NCC(c2ccc(N(C)C)cc2)N2CCOCC2)cc1` (stereo unspecified), with inactive: -7.78%; and `COc1ccc(-c2[nH]c3ccccc3c2SCCNC(=O)c2ccc(S(=O)(=O)N(C)C)cc2)cc1`, with inactive: -17.4%.
In the case of `NC(=O)c1ccccc1NC(=O)Cn1nc(Cc2cccnc2)c2ccccc2c1=O` it was inactive: -17.7%; in that of `CCOc1ccc(CNC(=O)c2sc3ncnc(N(C)C4CCCCC4)c3c2C)cc1`, inactive: 6.13%.
Take `O=C(CSC1=Nc2ccccc2N=C(c2ccc(F)cc2)C1)NCc1ccccc1Cl`: the “activation” value is inactive: -8.92%.
With `CCCCOc1ccc(CNC(=O)Cc2ccc(NC(=O)N3CCSc4ncccc43)cc2)cc1`, the “activation” value was inactive: -34%.
Then `CCNc1oc(-c2ccc(COc3ccc(Cl)cc3)o2)nc1C#N`, with inactive: -9.65%; and `Cc1nn(-c2ccc(N3CCOCC3)nn2)c(C)c1CCC(=O)NCc1ccccc1F`, with inactive: -3.93%.
Then `COC(=O)c1cc2oc(C)cc2n1CC(=O)Nc1cc(Cl)ccc1OC`, with inactive: -13%; and `COc1ccc(CNC(=O)c2cc3cccc4c3n2CC(C)S4)c(OC)c1` (stereo unspecified), with inactive: -23.1%.
In the case of `Cc1cccc(NC(=O)CSc2nc(=O)n(Cc3ccccn3)c3c2CCC3)c1C` it was inactive: -1.06%; in that of `COc1ccc(C(=O)Oc2cc(-c3ccc4c(c3)OCO4)cc(=O)c3c(C)oc(C)c23)cc1`, inactive: -11.1%.
With `O=C(CSc1ncc(CO)n1Cc1ccc(Cl)cc1)NCc1ccc(F)cc1`, the “activation” value is inactive: -14.2%.
For `COc1ccc(S(=O)(=O)N2CCN(CC(=O)Nc3ccc(Cl)c(C(F)(F)F)c3)CC2)cc1`, the “activation” value was inactive: -6.13%.
As to `Cc1ccc(Cl)cc1NC(=O)CSc1nc2c(c(=O)[nH]1)CN(Cc1ccccc1)CC2`, the “activation” value is inactive: -7.8%.
In the case of `CCOc1ccc(NC(=O)N(C(C)C)C2CCN(C(C)=O)CC2)cc1` it was inactive: -9.41%.
In the case of `CCOC(=O)c1ccc(NC(=O)CCc2c(C)nc3c(-c4ccc(F)cc4)c(C)nn3c2C)cc1` it was inactive: -4.51%; in that of `COc1ccc(NC(=O)C2Cc3ccccc3N2C(=O)c2ccccc2)cc1OC` (stereo unspecified), inactive: 13.3%.
In the case of `Cc1ccccc1C(=O)Nc1ccc(C(=O)OCc2cc(=O)n3nc(C(C)C)sc3n2)cc1` it was inactive: -12.1%.
For the molecule `Cc1ccc(-c2onc(C)c2C)cc1S(=O)(=O)Nc1ccc(Cl)cn1`, the “activation” value was inactive: 0.55%.
Turning to `CSc1cccc(-c2nnc(NC(=O)c3ccc4c(c3)OCCO4)o2)c1`, the “activation” value was inactive: 1.81%.
Consider `CC(C)CC(=O)NCc1nc2cccnc2n1Cc1ccccc1`, for which the “activation” value was inactive: -7.35%.
Then `CCOC(=O)c1cc(-c2ccccc2)n(CC(=O)Nc2ccc(OC)cc2OC)c1C`, with inactive: -17.2%; and `CCOc1ccc(NC(=O)C2CCN(S(=O)(=O)c3cc(-c4noc(C)n4)ccc3C)CC2)cc1`, with inactive: -6.56%; and `Cc1ccccc1CNC(=O)c1ccc(Cn2c(SCc3cccc(F)c3)nc3cccnc32)cc1`, with inactive: -5.98%.
With `COc1ccc(-c2ccc(NS(=O)(=O)c3cccc(Cl)c3)cc2)nn1`, the “activation” value was inactive: -10.4%.
Then `O=C(CCc1cn(Cc2ccccc2F)c2ccccc12)NCc1ccc(Cl)cc1`, with inactive: -7.42%.
Regarding `CCOC(=O)c1nc(Nc2ccc(C(=O)OCC(C)C)cc2)c2ccccc2n1`, the “activation” value is inactive: 1.21%.
As to `COc1cccc(NC(=O)N2CCC(n3c(C)nc4cccnc43)CC2)c1`, the “activation” value is inactive: -7.18%.
Take `O=C(NCc1ccccc1Cl)C1CCC(CNS(=O)(=O)c2ccc(Cl)cc2)CC1` (stereo unspecified): the “activation” value is inactive: -12.8%.
In the case of `COc1ccc(-c2cc(=S)ss2)cc1` it was inactive: -5.54%; in that of `COc1cccc(Cn2c(=O)n(-c3ccc(C)c(F)c3)c(=O)c3sc4ccccc4c32)c1`, inactive: -14.3%; in that of `Cc1ccc2oc(C(=O)N(Cc3cccc(F)c3)C3CCS(=O)(=O)C3)c(C)c2c1` (stereo unspecified), inactive: -7.39%.
In the case of `COc1ccc(N2CCN(C(=O)c3cc(S(=O)(=O)N4CCCCCC4)cn3C)CC2)cc1` it was inactive: -11.6%.
Regarding `Cc1ccc(N(CC(C)C)S(=O)(=O)c2nnc(NC(=O)c3ccco3)s2)cc1`, the “activation” value is inactive: -2.85%.
Turning to `O=C(COC(=O)C(Cc1c[nH]c2ccccc12)NC(=O)c1ccc(Br)cc1)c1ccc(Cl)cc1` (stereo unspecified), the “activation” value was inactive: -5.66%.
Then `Cc1cc(C(C)(C)C)c(O)c(C(C)(C)C)c1`, with inactive: -11.8%; and `Cc1ccc(-c2cc(C(F)(F)F)n3nc(-c4ccc(Cl)cc4)cc3n2)cc1`, with inactive: -15.2%; and `COc1ccc(CNC(=O)C2CCN(Cc3nc(-c4ccc(OC)c(OC)c4)oc3C)CC2)cc1`, with inactive: -13%.
Take `COc1cccc(OC)c1C(=O)Nc1nnc(C)s1`: the “activation” value is inactive: 7.95%.
